Assay results: paper PMC4336329 (PLoS ONE, 2015)
Among all 310,000 compounds or so, about 2,200 (0.71%) showed an effect of 50% or more. Effects have a minus sign here. The list shows a part of the results.

molecular target: human ether-à-go-go-related gene (hERG) potassium channel (human, UniProt Q12809); assay: primary screen, population patch clamp on CHO cells stably expressing hERG
Sequence (Q12809 whole entry, looked up): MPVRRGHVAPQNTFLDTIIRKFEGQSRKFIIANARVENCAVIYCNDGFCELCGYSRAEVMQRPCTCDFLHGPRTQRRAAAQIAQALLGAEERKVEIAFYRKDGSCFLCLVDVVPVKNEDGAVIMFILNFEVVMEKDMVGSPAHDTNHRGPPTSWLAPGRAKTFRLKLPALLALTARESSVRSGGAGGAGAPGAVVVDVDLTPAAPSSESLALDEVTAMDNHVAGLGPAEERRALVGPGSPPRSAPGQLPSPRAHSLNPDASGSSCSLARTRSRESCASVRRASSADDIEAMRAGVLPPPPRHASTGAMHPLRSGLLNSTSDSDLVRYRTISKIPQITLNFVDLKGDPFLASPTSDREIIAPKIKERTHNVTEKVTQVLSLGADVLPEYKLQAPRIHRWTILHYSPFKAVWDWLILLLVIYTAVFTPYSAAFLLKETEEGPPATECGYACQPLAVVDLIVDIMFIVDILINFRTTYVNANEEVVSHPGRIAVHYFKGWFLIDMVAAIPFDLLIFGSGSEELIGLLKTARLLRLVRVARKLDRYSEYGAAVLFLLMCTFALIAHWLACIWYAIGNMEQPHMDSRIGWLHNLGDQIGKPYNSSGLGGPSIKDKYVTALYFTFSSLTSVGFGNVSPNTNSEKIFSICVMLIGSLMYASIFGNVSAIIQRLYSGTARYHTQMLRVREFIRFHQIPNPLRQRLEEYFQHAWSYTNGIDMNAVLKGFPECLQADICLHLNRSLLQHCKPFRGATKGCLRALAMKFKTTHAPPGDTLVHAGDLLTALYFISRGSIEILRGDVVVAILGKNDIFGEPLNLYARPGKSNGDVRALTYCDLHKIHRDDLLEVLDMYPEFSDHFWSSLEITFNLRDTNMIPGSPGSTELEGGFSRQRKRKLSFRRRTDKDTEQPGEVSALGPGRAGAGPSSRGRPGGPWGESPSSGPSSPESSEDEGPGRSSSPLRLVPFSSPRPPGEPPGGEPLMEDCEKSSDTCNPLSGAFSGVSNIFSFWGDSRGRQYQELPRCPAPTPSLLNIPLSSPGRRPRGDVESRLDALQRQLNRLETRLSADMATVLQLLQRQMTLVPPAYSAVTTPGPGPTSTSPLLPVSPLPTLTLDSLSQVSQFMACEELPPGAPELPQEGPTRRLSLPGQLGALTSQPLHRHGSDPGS

Row | Structure (SMILES) | hERG current change (%, negative = inhibition) at 1uM [%]
1 | Cc1ccc(NC(=O)C2(S(=O)(=O)c3ccc(C)cc3)CC2)cc1 | 7.6
2 | Cc1csc(NC(=O)CSc2ccc([N+](=O)[O-])cn2)n1 | 2.66
3 | Cc1cc(NC(=O)c2ccc(NC(=O)C(C)Oc3ccccc3)cc2)no1 (stereo not shown) | 11
4 | O=C(O)CCSc1ccccn1 | 10.1
5 | CCCCC(=O)Nc1ccc(C(=O)Nc2nnc(COC)s2)cc1 | -3.54
6 | Cc1cccc(C)c1NC(=O)CN(C)CC(=O)Nc1ccc(F)c(Cl)c1 | 3.59
7 | Cc1sc2nc(SCC(=O)N3CCCC3)[nH]c(=O)c2c1C | 4.44
8 | Cc1noc(C)c1S(=O)(=O)N1CCC(C(=O)NCCN2CCC(C)CC2)CC1 | 11.8
9 | COc1ccc(C2CC(c3cccc(Cl)c3)n3nc(N)nc3N2)cc1 (stereo not shown) | 5.97
10 | COc1ccc(CN/C(C)=C(/C#N)C(N)=O)cc1OC | 3.28
11 | C[C@H](OC(=O)NCc1ccc(C(F)(F)F)cc1)[C@@H]1O[C@@]2(C)CCC[C@@H]1O2 | 12.3
12 | COc1ccc(CNC(=O)CSc2cccc3cccnc23)cc1 | 11.6
13 | CN(C)S(=O)(=O)c1ccc(NC(=O)COC(=O)C2COc3ccccc3O2)cc1 (stereo not shown) | 6.99
14 | Cc1cc(SCC(=O)N/N=C/c2ccc(O)c(O)c2)c(C)cc1Br | 10.9
15 | NC(=O)CN1C(=O)C(=O)N(Cc2ccccc2)C1=O | 13.4
16 | Cc1cc(C)c(S(=O)(=O)NCc2ccccn2)c(C)c1 | 4.51
17 | COc1ccc(N2CCN(S(=O)(=O)c3ccc4c(c3)CC(C)N4C(=O)C3CC3)CC2)cc1 (stereo not shown) | 23.4
18 | CCN(CC)S(=O)(=O)c1ccc(S(=O)(=O)Nc2ccc(C(=O)N3CCCC3)cc2)cc1 | -5.36
19 | COc1cc(C(=O)NCCCN2CCCC2=O)cc(Br)c1OCc1ccccc1 | -33.2
20 | COc1ccc(CCC(=O)NCc2cn3ccsc3n2)cc1 | 13.1
21 | N#CC1=C(N)C2=C(N3CCCCC3)CCCC2C1(C#N)C#N (stereo not shown) | -3.03
22 | O=C(CCSc1nc(-c2ccco2)cc(C(F)(F)F)n1)N1CCCc2ccccc21 | 9.09
23 | O=C(O)C(=O)O.c1cc2nc(C34CC5CC(CC(C5)C3)C4)[nH]c2cn1 | 3.25
24 | Cc1cc(-c2ccccc2)nc2cc(C(=O)OC(C)C)nn12 | 15.4
25 | N#Cc1c(-c2ccccc2)cc(-c2cccs2)nc1SCC(=O)O | -3.04
